Laboratory results from PubChem BioAssay AID488969 (Vanderbilt High Throughput Screening Facility, 2010).
Over roughly 110,000 compounds, “z-score” has its median near -0.1; the highest 2% begin near 2. This is one part of the list.

biological target: Metabotropic glutamate receptor 8 (Rattus norvegicus) (UniProt P70579); assay: rat mGluR8 modulators via GIRK flux, primary screen, cell-based, thallium flux, HTS (AID 488969); conditions: HEK293 rat mGluR8, GIRK (G protein-gated inwardly rectifying potassium channel) thallium flux, FluoZin2; at 10 µM; stronger effect = higher value; submaximal glutamate (EC20) added with thallium
Sequence of UniProt P70579 (P70579 whole entry, looked up): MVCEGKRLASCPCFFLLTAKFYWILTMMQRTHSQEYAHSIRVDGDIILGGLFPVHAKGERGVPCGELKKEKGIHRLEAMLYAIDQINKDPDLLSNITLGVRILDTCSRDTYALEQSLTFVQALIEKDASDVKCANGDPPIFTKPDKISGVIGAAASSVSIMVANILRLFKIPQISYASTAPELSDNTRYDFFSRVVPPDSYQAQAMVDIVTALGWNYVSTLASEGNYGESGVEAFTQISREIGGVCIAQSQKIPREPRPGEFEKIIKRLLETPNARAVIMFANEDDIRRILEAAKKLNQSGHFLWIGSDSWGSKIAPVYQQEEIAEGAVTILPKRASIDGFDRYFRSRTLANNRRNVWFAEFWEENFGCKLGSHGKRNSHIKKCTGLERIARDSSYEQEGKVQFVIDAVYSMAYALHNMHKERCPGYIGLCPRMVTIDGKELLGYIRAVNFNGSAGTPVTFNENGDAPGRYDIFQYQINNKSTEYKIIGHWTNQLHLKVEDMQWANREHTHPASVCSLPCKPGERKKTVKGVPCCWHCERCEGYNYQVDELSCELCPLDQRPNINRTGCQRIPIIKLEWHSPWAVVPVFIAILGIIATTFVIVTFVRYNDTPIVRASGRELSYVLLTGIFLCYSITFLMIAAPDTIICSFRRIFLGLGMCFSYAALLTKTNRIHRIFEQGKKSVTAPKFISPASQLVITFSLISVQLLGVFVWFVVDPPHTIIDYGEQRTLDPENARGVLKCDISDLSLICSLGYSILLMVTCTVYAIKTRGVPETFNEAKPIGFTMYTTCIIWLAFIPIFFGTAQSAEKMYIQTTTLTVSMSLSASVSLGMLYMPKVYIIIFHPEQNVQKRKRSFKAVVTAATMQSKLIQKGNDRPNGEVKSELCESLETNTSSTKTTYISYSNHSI

| Compound | z-score |
| --- | --- |
| O=C(Nc1ccccc1C(=O)N/N=C/c1ccco1)c1ccccc1Cl | 0.924 |
| O=C(O)COc1ccc2occ(C(=O)c3ccccc3)c2c1 | -0.673 |
| COC(=O)NNC(=S)NCc1ccccc1 | -0.238 |
| O=C(NCCCN1CCCC1)c1cccc(N2CCCC2=O)c1 | 0.317 |
| CCNC(=O)C(Sc1ccccc1)c1ccccc1 (stereo not given) | 0.00762 |
| Cc1ccc(NC(=O)C(=O)NNC(=O)c2ccccc2C)cc1Cl | -0.171 |
| COc1ccccc1N(C(C)=O)c1nc(C)cc(C)c1C#N | 0.0747 |
| O=c1[nH]c(-c2ccco2)nc2sc3c(c12)CCCC3 | -0.273 |
| O=c1cc(N2CCOCC2)[nH]c(=O)n1-c1ccc(Br)cc1 | 0.135 |
| CCN(CC)S(=O)(=O)c1ccc2c(c1)nc(CCC(=O)OCc1c(C)noc1C)n2C | -0.209 |
| O=C(CSC1=Nc2ccccc2C2=NC(c3ccccc3)C(=O)N12)NC1CCCCC1 (stereo not given) | -0.816 |
| CCOC(=O)C1CCCN(C(=O)c2sc3nc(C)nc(N4CCOCC4)c3c2C)C1 (stereo not given) | -0.222 |
| Cc1[nH]c(=O)c(C#N)c2c1CCCC2 | -0.463 |
| COC(=O)c1c(NC(=O)C2C3CCC(O3)C2C(=O)O)sc2c1CCCCCC2 (stereo not given) | -0.215 |
| CCn1cnc2cc(NCc3nc4ccccc4n3C)ccc21 | -0.256 |
| CCC1CCCCN1C(=O)CSc1nnc(CNC(=O)COc2ccc(Cl)cc2)o1 (stereo not given) | -0.269 |
| CN1CCN(CCCNC(=O)c2cn(C)c3ccc(S(=O)(=O)N(C)C)cc3c2=O)CC1 | -0.0965 |
| COCc1cc(C)n(CC(=O)N/N=C/c2ccc(-c3ccc(Cl)c(C(=O)O)c3)o2)c(=O)c1C#N | 0.0238 |
| O=C(CSc1ccc2nnc(-c3ccncc3)n2n1)Nc1ccc2c(c1)OCCO2 | -0.454 |
| CCCCc1nc(NCCNC(=O)c2ccccc2)c(C#N)c2c1CSC(C)(C)C2 | -0.352 |
| C=CCn1nc([N+](=O)[O-])nc1Sc1cccc2cccnc12 | 1.44 |
| O=C(COC(=O)CNC(=O)c1ccc(Cl)cc1)Nc1ncc(C(F)(F)F)cc1Cl | -0.342 |
| COc1cc(NC(=O)COc2ccc(Cl)cc2)ccc1-c1cc2ccccc2oc1=O | 1.24 |
| O=C(COC(=O)c1ccccc1O)Nc1cccnc1Cl | -0.873 |
| CCCc1cc(C(=O)NNC(=S)NCc2ccccc2)cs1 | -0.108 |
| CCOc1cc(OCC)cc(C(=O)NC(=S)Nc2cccc(C(F)(F)F)c2)c1 | 1.54 |
| CCOc1ccccc1NC(=O)C(Sc1nnc2ccccn12)c1ccccc1 (stereo not given) | -0.182 |
| O=C(CSc1ccccn1)Nc1nc2ccccc2s1 | 0.156 |

| Compound | z-score |
| --- | --- |
| CCOC(=O)C1CCN(c2c(NCc3ccc(C(=O)NC(C)CC)cc3)c(=O)c2=O)CC1 (stereo not given) | -0.414 |
| CS(=O)(=O)Nc1ccc(OCc2ccccc2)cc1 | -0.243 |
| CC(=O)NC(C)C(=O)OCc1ccc(Cl)cc1Cl (stereo not given) | 1.07 |
| COC(=O)C(=O)Nc1nnc(COc2ccccc2)s1 | -0.887 |
| CCCCC(=O)Nc1ccc(C(=O)Nc2ccc(S(=O)(=O)Nc3ccc(C)cc3)cc2)cc1 | -0.117 |
| O=C(Nc1cccc2ccccc12)c1ccccc1NS(=O)(=O)c1cccc2cccnc12 | -0.0553 |
| CC1(C)N([O-])C2=C(c3ccccc3C2=O)[N+](=O)C1(C)C | -0.167 |
| O=C(CN1C(=O)NC(Cc2ccccc2)(Cc2ccccc2)C1=O)NCC1CCCCC1 | 0.00942 |
| Clc1ccc(CCNc2nc3ccccc3s2)cc1 | -0.282 |
| COc1cc(C(=S)N2CCCC2)cc(Cl)c1O | 2.62 |
| Cc1c(NC(=S)/C=C2\N(C)c3ccccc3C2(C)C)c(=O)n(-c2ccccc2)n1C | -0.43 |
| CCCSc1nc(C)c(C(C)=O)cc1C#N | -0.196 |
| O=C(NCc1ccco1)c1nc2c(nnn2Cc2ccccc2Cl)c(=O)[nH]1 | -1.14 |
| CC1CCN(S(=O)(=O)c2ccc(C(=O)NCc3ccc4c(c3)OCO4)cc2)CC1 | -0.39 |
| CN(C)c1ccc(Nc2c3c4c(cccc4n(C)c2=O)C(=O)c2ccccc2-3)cc1 | 0.123 |
| O=C(OCc1nnc(-c2ccc(Cl)cc2)o1)c1ccncc1 | -0.619 |
| CC(C)(C)n1ncc2c(=O)n(CC(=O)Nc3ccc4c(c3)OCO4)cnc21 | 0.52 |
| O=C(O)c1cccc(S(=O)(=O)N2Cc3ccccc3C2)c1 | -0.202 |
| Cc1ccccc1NC(=O)Nc1ccccc1Br | -0.375 |
| COCCCNC(=O)C(F)(F)C(F)(F)C(=O)NCCCOC | -0.233 |
| CCOC(=O)c1c(NC(=O)Cn2nc(C(F)(F)F)cc2C)sc2c1CCC2 | -0.122 |
| CCOC(=O)C(C)Oc1ccc2c(C)cc(=O)oc2c1C(C)=O (stereo not given) | -0.319 |
| COc1ccc(S(=O)(=O)NCCSC(C)(C)C)cc1Cl | 0.154 |
| Cc1ccc(N(C(=O)C(F)(F)F)C(C(=O)NC2CCCCC2)c2cccs2)cc1C (stereo not given) | -2.35 |
| O=C(Cc1ccc(Br)cc1)N1CCN(c2ccccc2)CC1 | -0.169 |
| c1ccc(-c2csc(N3CCc4ccccc4C3)n2)cc1 | 0.2 |
| Oc1ccc(N=Nc2c(O)ccc3ccccc23)cc1 | -0.0552 |
